Cytotoxicity call and growth inhibition call data for twelve compounds are collected here from the antibiotic and cytotoxicity screens of Wong et al. (2023).

Structures are written as SMILES. Some of the results follow.

Experiment [1] has as its system HSkMC (human skeletal muscle cells). In words: cytotoxicity call (relative viability < 0.9). The following applies: 10 µM.
In experiment [2] the test system is HepG2. In words: cytotoxicity call (relative viability < 0.9). The following applies: 10 µM.
Experiment [3] has as its system S. aureus RN4220. Nature of the experiment: growth inhibition call (relative growth <= 0.2). The following applies: 50 µM.

Consider `COC(=O)c1cccnc1`, for which the cytotoxicity call in experiment [1] and in experiment [2] was “inactive” in each case. In addition, the growth inhibition call in experiment [3] was “inactive”.
In the case of `COc1ccc(S(=O)(=O)Nc2ccc3c(c2)C(=O)N([C@H](C)CO)C[C@H](C)[C@H](CN(C)Cc2ccccc2)OCCCC[C@@H](C)O3)cc1`, the cytotoxicity call in experiment [1] and in experiment [2] was “inactive” throughout. Besides, in experiment [3], the growth inhibition call is “inactive”.
With `C[C@H](CO)N1C[C@H](C)[C@@H](CN(C)C(=O)Nc2ccc3c(c2)OCO3)Oc2ccc(NC(=O)c3ccncc3)cc2CC1=O`, the cytotoxicity call in experiment [1] and in experiment [2] was “inactive” in each case. The growth inhibition call in experiment [3] was “inactive”.
Consider `COc1ccc(NC(=O)Nc2ccc3c(c2)CC(=O)N([C@@H](C)CO)C[C@@H](C)[C@@H](CN(C)CC2CCCCC2)O3)cc1`, for which the cytotoxicity call in experiment [1] and in experiment [2] was “inactive” in each case. In experiment [3], the growth inhibition call was “inactive”.
As for `C[C@H](O)C#Cc1ccc2c(c1)O[C@H](CN(C)C(=O)CN(C)C)[C@H](C)CN([C@H](C)CO)S2(=O)=O`, the cytotoxicity call in experiment [1] and in experiment [2] was “inactive” each time. Besides, in experiment [3], the growth inhibition call is “inactive”.
Take `C[C@@H]1CN([C@H](C)CO)C(=O)Cc2cc(NS(=O)(=O)c3ccccc3)ccc2O[C@H]1CN(C)S(=O)(=O)c1cn(C)cn1`: in experiment [1], the cytotoxicity call was “inactive”. In experiment [2], the cytotoxicity call is “active”. In addition, the growth inhibition call in experiment [3] is “inactive”.
With `O=C(C[C@H]1C=C[C@H](NC(=O)CN2CCOCC2)[C@H](CO)O1)NC1CCC1`, the cytotoxicity call in experiment [1] and in experiment [2] was “inactive” each time. In addition, the growth inhibition call in experiment [3] was “inactive”.
In the case of `Cc1ccc(S[C@]2(C(=O)O)CC(=O)N(Cc3ccccc3C(F)(F)F)[C@@H]2c2ccc(CO)cc2I)cc1`, the cytotoxicity call in experiment [1] and in experiment [2] was “inactive” each time. Further, the growth inhibition call in experiment [3] is “inactive”.
With `CC(C)NC(=O)Nc1ccc2c(c1)C(=O)N([C@@H](C)CO)C[C@H](C)[C@H](CN(C)Cc1ccc3c(c1)OCO3)O2`, the cytotoxicity call in experiment [1] and in experiment [2] was “inactive” each time. The growth inhibition call in experiment [3] was “inactive”.
Turning to `C[C@@H]1CN([C@H](C)CO)C(=O)Cc2cc(NC(=O)Cn3cnnn3)ccc2O[C@H]1CN(C)Cc1ccc(C(=O)Nc2ccccc2N)cc1`, the cytotoxicity call in experiment [1] and in experiment [2] was “inactive” throughout. The growth inhibition call in experiment [3] is “inactive”.
Consider `C[C@H](CO)N1C[C@H](C)[C@@H](CN(C)Cc2ccc(Oc3ccccc3)cc2)Oc2ccc(NC(=O)C3CCCCC3)cc2CC1=O`, for which the cytotoxicity call in experiment [1] and in experiment [2] was “inactive” each time. In experiment [3], the growth inhibition call was “inactive”.
On to `C[C@@H]1CCCCO[C@H](CN(C)C(=O)Nc2ccccc2)[C@@H](C)CN([C@@H](C)CO)C(=O)c2cc(NC(=O)Cc3ccccc3)ccc2O1`, for which the cytotoxicity call in experiment [1] and in experiment [2] was “inactive” each time. Besides, in experiment [3], the growth inhibition call was “inactive”.
